Literature values in article PMC9235362 (Journal of medicinal chemistry, 2021).

Tested on: Sprague Dawley rats
Settings: cumulative doses administered 5 min apart, up to 10 mg/kg i.v.; cited from earlier work

**Q.** Which “Antinociception in hotplate assay” value does the source give for `CC[C@@H]1CN2CCc3c([nH]c4cccc(OC)c34)[C@@H]2C[C@@H]1/C(=C\OC)C(=O)OC` [mitragynine] here?
**A.** The value was “did not produce antinociception”.
